Laboratory results taken from the supplement of paper PMC12889115.
Some of the results follow. No stated cut-off is given here; in the data, active = 25% or less and inactive = the rest. Repeats are few or missing, and single values can be far off.

system: Salmonella enterica serovar Typhimurium SL1344; experiment: intramacrophage bacterial GFP load (SAFIRE), percent of DMSO control (% of DMSO); higher = more intracellular bacteria (less inhibition); details: 25 µM; system: infected RAW 264.7 macrophages
Method: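 Secondary screen of the 553 primary hits at 25 µM. (i) S. Typhimurium SL1344 grown in Mueller-Hinton broth with 0.5 µg/mL polymyxin B, OD600 read after 18 h. (ii) SAFIRE assay: RAW 264.7 macrophages infected with S. Typhimurium sifB::gfp (MOI 30); compound added 2 h post-infection; cells fixed at 18 h; GFP-positive pixel fraction per macrophage imaged by confocal microscopy and expressed as % of DMSO control.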
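Further: compounds tested were the hits of an earlier 50 µM broth growth screen of a drug-like diversity library run with polymyxin B.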

Intramacrophage bacterial GFP load, active:
O=C(CN1CC(c2ccccc2)CC1=O)N(Cc1ccncc1)Cc1cccc(OCCc2ccc(F)cc2)c1 (stereo not given) 21.5
CN(C(=O)c1ccccn1)C(Cc1ccccc1)C1CCN(C(=O)/C(F)=C/c2ccccc2)CC1 (stereo not given) 5.74
O=C(Nc1cccc(-c2ccc(F)cc2)c1)C1CCCN(Cc2cccnc2)C1 (stereo not given) 7.59
Cc1cc(C)n(Cc2ccc(C(=O)N(Cc3ccncc3)Cc3cccc(OCCc4ccc(F)cc4)c3)cc2)n1 0.236
OCC1(Cc2cccc(Cl)c2)CCCN(Cc2ccc(F)c(F)c2)C1 (stereo not given) 15.7
Cc1nc(N2CCCCCCC2)ncc1C(C)NCc1ccsc1 (stereo not given) 2.15
O=C(Nc1cccc(-c2ccc(F)cc2)c1)C1CCCN(Cc2ccccn2)C1 (stereo not given) 10.1

Intramacrophage bacterial GFP load, inactive:
CC(C)(O)C#Cc1ccc(C(=O)N2Cc3ccccc3OC(c3ccccc3)C2)cc1 (stereo not given) 136
CN1C(=O)CC(CC(=O)N2CCCC(C(=O)c3nccn3C)C2)(c2ccc(-c3ccccc3)cc2)C1=O (stereo not given) 50.6
CCS(=O)(=O)Nc1cc(C(=O)N(C)C(C)c2cccs2)c2c(c1)nc(-c1ccccc1)n2C (stereo not given) 178
CN1C(=O)CC(CC(=O)N(CCO)Cc2ccccc2)(c2ccc(-c3ccccc3)cc2)C1=O (stereo not given) 91.2
Cc1nc(CC(=O)N(Cc2ccncc2)Cc2cccc(OCCc3ccc(F)cc3)c2)cs1 37.4
Cc1ccc2c(c1)CN(Cc1cn(C)nc1C)CC(c1ccsc1)O2 (stereo not given) 65.8
Cc1noc(-c2ccc(NCC[C@@H]3C[C@@H]4C=C[C@H]3C4)nc2)n1 112
O=C(c1ccc(-c2ccccc2)cc1)C1CCCN(C(=O)CCc2ccncc2)C1 (stereo not given) 71.5
Cc1ccc2c(c1)CN(Cc1cccnc1)CC(c1ccsc1)O2 (stereo not given) 80.7
CO[C@H]1[C@H](NC(=O)c2ccncc2)c2ccccc2C12CCN(C(=O)c1ccc(CC(C)C)cc1)CC2 172
CN(Cc1ccn[nH]1)C(=O)c1ccc2oc(-c3ccc(C(F)(F)F)cc3)nc2c1 105
Cc1cnccc1CN(C)C(=O)CC(c1cccc(O)c1)c1cccc(Cl)c1 (stereo not given) 72.4
O=C(/C=C/c1ccco1)N1CCC2(CCCN(CCc3ccccc3)C2)C1 (stereo not given) 83.7
COc1ccc(C(=O)N(Cc2ccc(OC)c(OCc3cccs3)c2)C2CCCC2)c(OC)c1 119
CC(C)CN(C)Cc1cnc(S(=O)(=O)CC(C)C)n1Cc1ccccc1 53.2
Cc1nonc1CN(C)C(=O)C1(N2CCCCC2)Cc2ccccc2C1 32.9
CCC1CN(Cc2ccc(C(=O)OC)cc2)Cc2cc(OC)ccc2O1 (stereo not given) 42.8
COc1ccccc1CNC(=O)c1coc(COc2ccc(F)cc2)n1 179
COC1CCN(C(=O)C2(N(C)CCc3ccccc3)Cc3ccccc3C2)CC1 101
COc1ccc(CN(Cc2ccncc2)C(=O)c2sccc2C)cc1OCc1ccccc1F 125
COc1ccc(C(=O)N2CCCC(Nc3ccc(C(C)C)cc3)C2)cc1F (stereo not given) 79.5
CCc1noc(C)c1C(=O)N1CCC(CCC(=O)N2CCC(Cc3ccccc3)CC2)CC1 69.3
Fc1cccc(C2CCN(CC3CC3)c3ccccc3S2)c1 (stereo not given) 105
CCOC(=O)C1(Cc2cccc(C(F)(F)F)c2)CCN(C(=O)Cc2nonc2C)CC1 89.8
COCCCN1C(=O)CC(CC(=O)N2CCCC(c3ccccc3C)C2)(c2ccccc2Cl)C1=O (stereo not given) 69.1
CCOC(=O)C1(C/C=C/c2ccccc2)CCCN(Cc2nccs2)C1 (stereo not given) 28.2
O=C(CN1CC(c2ccccc2)CC1=O)NCCN1Cc2ccccc2OC(c2ccccc2F)C1 (stereo not given) 36.2
CC(c1ccon1)N(C)C(=O)CC1(c2ccc(-c3ccccc3)cc2)CC(=O)N(C)C1=O (stereo not given) 86.8
Cc1ccc(CN(C)C(=O)CC2(c3ccccc3)CC(=O)N(CCCOc3cccnc3)C2=O)cc1 (stereo not given) 37.5
Cc1oc(-c2cccc(C(F)(F)F)c2)nc1CN(Cc1ccccc1)C[C@@H]1CCC(=O)N1 77.2
Cc1cccc(C(=O)N2CCCC(C(=O)c3ccc(-c4ccccc4)cc3)C2)n1 (stereo not given) 26.6
CN(c1ncccc1CNS(C)(=O)=O)C1CCCCC1 98.5
CCCc1ccc2oc(C(=O)N3CCC(OCc4ccccn4)CC3)c(C)c2c1 48.6
